Measurements as given in PubChem BioAssay AID1745845 (National Center for Advancing Translational Sciences (NCATS), 2022).
Hit rate of the full screen: of about 360,000 compounds, about 2,600 (0.72%) were called active. The shares of active, inactive and inconclusive entries below differ from those in the screen. Calls follow the shape of the dose curve; as a rule, active = well fitted inhibition curve with a large enough effect; inconclusive = small, poorly fitted or top-dose-only effect; inactive = no such curve, though single readings can be large or run the other way. A potency beside an inconclusive call is a rough fit, not a confirmed value.

Test: Primary qHTS for Inhibitors of ATXN expression; also: nearly all actives have a fitted effect of over 55% in size
Details: HEK-293 ATXN2-luciferase reporter, luminescence, 24 h; activity change, negative = inhibition: at 57 µM (top of the series)
In short: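 qHTS (up to 57 uM final) was run with 24 h compound exposure of reporter cells at 37 °C. Each well was multiplexed: SteadyGlo luminescence measured ATXN2-luciferase expression after a fluorogenic Gly-Phe-AFC viability readout (25 uM final).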
% is scaled to controls: 0 for no effect and ±100 for the full control effect; potency is read from the fitted curve at half-maximal effect; tags tell the direction and shape of the fitted curve.

Potency, inactive:
COc1ccc(CN2C(=O)C(C)Nc3ncnc(N4CCN(c5ccccc5)CC4)c32)cc1 (stereo not given)

Potency, active:
COc1ccc([N+](=O)[O-])c(S(=O)(=O)c2ccccc2)n1 11.9 µM
C#CCN(C[C@@H]1[C@@H](OC(=O)NCC2CCCCC2)[C@@H](OC(=O)NCC2CCCCC2)Cn2c(=O)ccc(=O)n21)S(=O)(=O)c1ccc(C)cc1 3.55 µM
COc1cc(/C=C/[N+](=O)[O-])ccc1OCc1cccc(C(=O)O)c1 28.2 µM
O=C(Nc1ccc(F)cc1F)N1CCN(c2ccc(Cl)c(Cl)c2)CC1 20 µM

Potency, inconclusive:
c1ccc(-c2ccc(C3CCCN3)cc2)cc1 (stereo not given) 22.4 µM [inhibitor, partial curve, poor fit]
COc1cc(N=c2ssnc2Cl)c(OC)cc1Cl 31.6 µM [inhibitor, single point]
C=CCc1cc(Cl)ccc1OCCN1CC(C)OC(C)C1 (stereo not given) 29.9 µM [inhibitor, single point]
O=C(CNC(=O)c1ccccc1F)N/N=C/c1cc(Br)ccc1OC(=O)/C=C/c1ccco1 12.6 µM [inhibitor, partial curve, poor fit]
O=C(O)CC12C[C@H]3C[C@@H](C1)CC(n1ncc(N4CCN(c5ccccc5)CC4)c(Cl)c1=O)(C3)C2 7.08 µM [inhibitor, partial curve, poor fit]
O=C(OCc1cn([C@H]2CN(C(=O)C3CCCCC3)[C@@H](c3ccc(Cl)cc3)C[C@@H]2O)nn1)c1ccccc1 39.8 µM [inhibitor, single point]
Cc1ncc(CN2CCCC(C(=O)Nc3ccc(-c4cccc(F)c4)cc3)C2)n1C (stereo not given) 28.2 µM [inhibitor, partial curve, poor fit]
CCOc1cc(/C=N/Nc2nc(-c3cccc(S(=O)(=O)N4CCCC4)c3)cs2)ccc1O 28.2 µM [inhibitor, single point]
CN(C)CCNCCCNc1c2ccccc2nc2cccc([N+](=O)[O-])c12 0.316 µM [inhibitor, full curve, poor fit]
COc1ccc(-c2csc(NC3OC(=O)c4c3ccc(OC)c4OC)n2)cc1OC (stereo not given) 39.8 µM [inhibitor, single point]
Cc1cc(C)cc(OCC(=O)NNC(=S)NC(=O)C2CC2)c1 39.8 µM [inhibitor, single point]
O=C(N/N=C/c1ccncc1)c1ccc(NC(=O)c2ccc(Cl)cc2)cc1 15.8 µM [inhibitor, partial curve, poor fit]
CCN(CC)S(=O)(=O)c1ccc(N2CCOCC2)c(NS(=O)(=O)c2ccc(C)cc2)c1 1.58 µM [inhibitor, partial curve]
COC(=O)c1ccc2c(=O)n(CC3CCCO3)c(SCC(=O)Nc3ccccc3Cl)nc2c1 (stereo not given) 39.8 µM [inhibitor, single point]
COc1ccc(-c2c([C@H]3[C@H]4C=CC[C@@H](C)[C@@H]4C(=O)N3Cc3ccccc3)ccc3ccccc23)cc1OC 25.1 µM [inhibitor, partial curve, poor fit]
COc1ccc(C(=O)Nc2ccc3oc(Cc4ccc(Cl)cc4)nc3c2)cc1OC 22.4 µM [inhibitor, single point]
C=CCn1c(Sc2ncc([N+](=O)[O-])s2)n[nH]c1=O 37.7 µM [inhibitor, single point]
O=c1[nH]c(C2CCN(S(=O)(=O)c3cccc(C(F)(F)F)c3)CC2)nc2c1nnn2Cc1cccc(F)c1 23.8 µM [inhibitor, partial curve, poor fit]
C1=C(CCNc2ncnc3c2[nH]c2ccccc23)CCCC1 39.8 µM [inhibitor, single point]
COc1cc(Nc2ncc3c(n2)CCN(Cc2cc(F)cc(F)c2)C3)cc(OC)c1 5.01 µM [inhibitor, full curve, poor fit]
CCOC(=O)CS(=O)(=O)c1nc(-c2ccc(F)cc2)cc(C(F)(F)F)n1 39.8 µM [inhibitor, single point]
CCCCOP(=O)(c1ccc(N(C)C)cc1)C(Nc1ccccc1)c1ccccc1 (stereo not given) 28.2 µM [inhibitor, single point]
COc1ccc(/C=C2\SC(=S)N(CCCC(=O)NNC(=O)c3ccccc3O)C2=O)cc1 8.91 µM [inhibitor, full curve, poor fit]
CN(Cc1cccc2cnccc12)C(=O)c1cc(COc2ccc(F)cc2F)on1 14.1 µM [inhibitor, partial curve, poor fit]
CCOC(=O)C1(CCCc2ccccc2)CCN(Cc2cnc(C)s2)CC1 42.3 µM [inhibitor, partial curve, poor fit]
Cn1nnnc1SCCCNCc1cc(Cl)ccc1OCc1ccccc1F 10 µM [inhibitor, partial curve, poor fit]
CCOC(=O)c1ccn(-c2nc(-c3cccc(OC)c3)cc(C(F)(F)F)n2)n1 31.6 µM [inhibitor, single point]
COc1cc(O)cc2c1[C@@H]1Oc3c(ccc(O)c3CC=C(C)C)[C@@H]1CO2 39.8 µM [inhibitor, single point]
CC(=O)Nc1ccc(-c2ccnc3c2CC(C(=O)Nc2ccc(Cl)c(C(F)(F)F)c2)O3)cc1 (stereo not given) 31.6 µM [inhibitor, partial curve, poor fit]
O=C(Nc1cccc(OC(F)(F)F)c1)C1Cc2c(-c3cccc(F)c3)ccnc2O1 (stereo not given) 25.1 µM [inhibitor, single point]
Cc1[nH]nc2c1C(c1cccc(O)c1)C1=C(CC(C)(C)CC1=O)N2 (stereo not given) 7.08 µM [inhibitor, partial curve, poor fit]
COc1ccc(-c2nc(-c3ccccc3)c(-c3ccc(F)cc3)[nH]2)c(OC)c1C 39.8 µM [inhibitor, single point]
CC1CC(C)CN(CCOCCSc2ccc(Cl)cc2)C1 (stereo not given) 3.55 µM [inhibitor, single point]
Cc1noc(C)c1S(=O)(=O)Nc1ccc2c(c1)C(=O)N([C@@H](C)CO)C[C@H](C)[C@@H](CN(C)Cc1ccc(C(F)(F)F)cc1)OCCCC[C@H](C)O2 39.8 µM [inhibitor, single point]
O=C1[C@@H](c2ccccc2)[C@@H](c2ccccc2)N1c1cccnc1 25.1 µM [inhibitor, single point]
Cc1ccc(C)c(-n2c3nc(=O)[nH]c(=O)c-3cc3cc([N+](=O)[O-])ccc32)c1 39.8 µM [inhibitor, single point]
COc1ccccc1Cc1c(C2CCCCC2)nc2ccc(C)cn12 39.8 µM [inhibitor, single point]
COc1ccc(Nc2ccnc(Nc3ccc(OC)cc3)n2)cc1 37.7 µM [inhibitor, single point]
O=C(c1ccc(Oc2ccc(Cl)cc2)c([N+](=O)[O-])c1)N1CCCC1 28.2 µM [inhibitor, single point]

Activity change, negative = inhibition, inactive:
N#CCSc1nc2cc(C(=O)N3CCC(C(N)=O)CC3)ccc2c2nc3ccccc3n12 8.82%
CN(c1ccccc1)S(=O)(=O)c1ccc(Cl)c(C(=O)NCCc2c[nH]c3ccccc23)c1 0.602%
COC(=O)C1CCN(Cc2nnc(-c3ccccc3)o2)CC1 -14.9%
Cc1cc(NS(=O)(=O)c2ccc(Nc3nc(-c4ccc(O)cc4)cs3)cc2)no1 3.45%
COc1cc2c(cc1OC)C(=S)NC1(CCCC1)C2 -6.78%
CCN(CC)CCC=C(c1cccs1)c1cccs1 -19.6%
CCOC(=O)c1sc(NC(=S)NC(=O)C2CC2)cc1C 4.78%
O=C(COC(=O)[C@@H]1CC(O)CN1S(=O)(=O)c1ccc(Cl)cc1)NC(=O)NCc1ccccc1 (stereo not given in full) 4.11%
Cn1c(CN2CCCCC2)nc2cc(NC(=O)c3ccccc3)ccc21 11%
Cc1cccc(CNC(=O)C2CCN(S(=O)(=O)c3ccc4c(c3)CCCN4C(=O)C3CCC3)CC2)c1 -8.1%
CCOc1ccc(S(=O)(=O)NCc2ccncc2)cc1NC(=O)c1ccccc1F -0.902%
CCCCCc1nn2cc(-c3ccccc3)nc2s1 22.4%
COc1cccc(NC(=O)N(Cc2c[nH]c3ccccc23)C2CCCCC2)c1 2.44%
C[C@H](CO)N1C[C@H](C)[C@@H](CN(C)S(=O)(=O)c2cn(C)cn2)Oc2c(NC(=O)Nc3ccc4c(c3)OCO4)cccc2C1=O 6.52%
O=C(CS)Nc1ccc2ccccc2c1 -18.9%
CCNC(=O)c1c(NC(=O)c2cc(-c3cc(C)ccc3O)n[nH]2)sc2c1CCCC2 -20.9%
C/C(CCC(C)C)=N\NC(=S)Nc1cc(S(=O)(=O)N2CCOCC2)ccc1N1CCOCC1 -7.85%
CCN(c1ccc(OC)cc1)S(=O)(=O)N1CCCC(C(=O)NCc2ccccc2Br)C1 (stereo not given) -9.45%
CC(C)(C)C1CCC2(CC1)C(Nc1cccc(C(F)(F)F)c1)=NC(=S)N2CC#N (stereo not given) -2.54%
CC(=O)N1CCN(c2nc(-c3ccco3)c3c(c2C#N)CC(C)(C)SC3)CC1 1.27%
CCCCNC(=S)NNC(=O)c1csc(C(C)C)c1 47.9%
